# Experimental data as given in PubChem BioAssay AID1347120 (National Center for Advancing Translational Sciences (NCATS), 2019).
# Out of some 390,000 compounds screened, about 930 (0.24%) were called active. This list was built around the results that the source calls inconclusive (neither active nor inactive); the mix of calls is not that of the screen. The call rests on the fitted dose curve; in most records, active means well fitted activation curve with a large enough effect; inconclusive means small, poorly fitted or top-dose-only effect; inactive means no such curve, though single readings can be large or run the other way. Potencies beside an inconclusive call are fits to weak or partial responses and may not hold up.
# Assay: qHTS for Suppressors of FUS Proteinopathy: Primary screen using FUS-linked yeast assay; further: nearly all actives have a fitted effect of over 55% in size
# Conditions: S. cerevisiae FUS-expressing, OD600, 24 h; Potency: growth rescue; series mostly up to 76.6 µM
# How it was run: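 Yeast expressing FUS under galactose induction, OD 0.005 in 2% galactose medium; compounds in a dilution series, 24 h at 30C. Growth rescue by absorbance at 600 nm; CP55940 positive control, DMSO negative.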
# Potency means the concentration at half of the fitted maximal effect; tags describe the fitted curve by direction and shape.
row,Structure (SMILES),Potency
1,CCCCc1nn2c(=O)cc(COC(=O)c3ccc(NC(=O)c4ccccc4Cl)cc3)nc2s1,inactive
2,CCNC(=S)NNc1nnc(-c2ccccc2)c(-c2ccccc2)n1,"inconclusive: 35.5 µM [activator, single point]"
3,CN1CCc2c(sc3c2c(=O)n(-c2ccccc2)c2nnc(SCc4ccc(Cl)cc4)n32)C1,"inconclusive: 35.5 µM [activator, single point]"
4,CCOC1=C2CN(S(=O)(=O)c3ccc(C)cc3)[C@@H](c3ccc(CC)cc3)C[C@H]2[C@H]2C(=O)N(c3ccccc3)C(=O)[C@H]2C1,"inconclusive: 12.6 µM [activator, partial curve, poor fit]"
5,COc1cccc(CNC(=O)c2ccc3nc(N4CCCCC4)sc3c2)c1OC,inactive
6,O=C(Nc1ncccc1O)c1ccc2c(c1)OCO2,"inconclusive: 2.51 µM [activator, full curve, poor fit]"
7,COc1ccc(C(=O)Nc2ccccc2N2CCN(C(=O)C(C)C)CC2)cc1Cl,inactive
8,CCOC(=O)[C@H]1[C@H]2COc3ccc(OC)cc3[C@@H]2N2C(=O)CN(Cc3ccc(OC)cc3)C(=O)[C@@]12C,"inconclusive: 20 µM [activator, partial curve, poor fit]"
9,CCCCN1C(=O)c2[nH]nc(-c3ccccc3O)c2C1c1cc(Br)c(O)c(OC)c1 (configuration not stated),"inconclusive: 50.1 µM [activator, single point]"
10,O=C1c2ccccc2C(=O)N1CCc1csc(NNc2nc(CCN3C(=O)c4ccccc4C3=O)cs2)n1,"inconclusive: 11.2 µM [activator, partial curve, poor fit]"
11,CCOc1ccc(S(=O)(=O)Nc2cccc(-c3ccc(N4CCCCCC4)nn3)c2)cc1,"inconclusive: 12.6 µM [activator, partial curve]"
12,CC1CCC(NC(=O)c2ccc3c(c2)N(Cc2ccccc2F)C(=O)c2ccccc2S3=O)CC1 (configuration not stated),"inconclusive: 11.2 µM [activator, partial curve]"
13,COc1ccc(C(C)=O)cc1COC(=O)c1c(C)noc1C,inactive
14,Cc1cc(C)n2ncc(-c3cccc(Br)c3)c2n1,"inconclusive: 50.1 µM [activator, single point]"
15,CCN1CCN(c2oc(/C=C/c3ccc(OC)c(OC)c3)nc2C#N)CC1,inactive
16,CN(c1ccccc1)S(=O)(=O)c1cccc(NC(=O)c2nn(C)c(=O)c3ccccc23)c1,"inconclusive: 50.1 µM [activator, single point]"
17,O=C1CSc2ccc(C(=O)N3CCCC(C(=O)N4CCCC4)C3)cc2N1 (configuration not stated),inactive
